B1: P1AD8749 + P1AD8592 (combination of both hemibodies, 1:1) (protein)
heavy 1: QVQLVQSGAEVKKPGASVKVSCKASGYTFTEFGMNWVRQAPGQGLEWMGWINTKTGEATYVEEFKGRVTFTTDTSTSTAYMELRSLRSDDTAVYYCARWDFAYYVEAMDYWGQGTTVTVSSASTKGPSVFPLAPSSKSTSGGTAALGCLVKDYFPEPVTVSWNSGALTSGVHTFPAVLQSSGLYSLSSVVTVPSSSLGTQTYICNVNHKPSNTKVDKKVEPKSCDKTHTCPPCPAPEAAGGPSVFLFPPKPKDTLMISRTPEVTCVVVDVSHEDPEVKFNWYVDGVEVHNAKTKPREEQYNSTYRVVSVLTVLHQDWLNGKEYKCKVSNKALGAPIEKTISKAKGQPREPQVCTLPPSRDELTKNQVSLSCAVKGFYPSDIAVEWESNGQPENNYKTTPPVLDSDGSFFLVSKLTVDKSRWQQGNVFSCSVMHEALHNHYTQKSLSLSPG
heavy 2: QVQLVQSGAEVKKPGASVKVSCKASGYTFTEFGMNWVRQAPGQGLEWMGWINTKTGEATYVEEFKGRVTFTTDTSTSTAYMELRSLRSDDTAVYYCARWDFAYYVEAMDYWGQGTTVTVSSASTKGPSVFPLAPSSKSTSGGTAALGCLVKDYFPEPVTVSWNSGALTSGVHTFPAVLQSSGLYSLSSVVTVPSSSLGTQTYICNVNHKPSNTKVDKKV[human IgG1 Fc with changes skipped]GGGGSGGGGSGGGGSGGGGSVTLKESGPVLVKPTETLTLTCTVSGFSLSTYSMSWIRQPPGKALEWLGFIGSRGDTYYASWAKGRLTISKDTSKSQVVLTMTNMDPVDTATYYCARERDPYGGGAYPPHLWGRGTLVTVSS
heavy 3: QVQLVQSGAEVKKPGASVKVSCKASGYTFTEFGMNWVRQAPGQGLEWMGWINTKTGEATYVEEFKGRVTFTTDTSTSTAYMELRSLRSDDTAVYYCARWDFAYYVEAMDYWGQGTTVTVSSASTKGPSVFPLAPSSKSTSGGTAALGCLVKDYFPEPVTVSWNSGALTSGVHTFPAVLQSSGLYSLSSVVTVPSSSLGTQTYICNVNHKPSNTKVDKKV[human IgG1 Fc with changes skipped]
heavy 4: QVQLVQSGAEVKKPGASVKVSCKASGYTFTEFGMNWVRQAPGQGLEWMGWINTKTGEATYVEEFKGRVTFTTDTSTSTAYMELRSLRSDDTAVYYCARWDFAYYVEAMDYWGQGTTVTVSSASTKGPSVFPLAPSSKSTSGGTAALGCLVKDYFPEPVTVSWNSGALTSGVHTFPAVLQSSGLYSLSSVVTVPSSSLGTQTYICNVNHKPSNTKVDKKVEPKSCDKTHTCPPCPAPEAAGGPSVFLFPPKPKDTLMISRTPEVTCVVVDVSHEDPEVKFNWYVDGVEVHNAKTKPREEQYNSTYRVVSVLTVLHQDWLNGKEYKCKVSNKALGAPIEKTISKAKGQPREPQVCTLPPSRDELTKNQVSLSCAVKGFYPSDIAVEWESNGQPENNYKTTPPVLDSDGSFFLVSKLTVDKSRWQQGNVFSCSVMHEALHNHYTQKSLSLSPGGGGGSGGGGSGGGGSGGGGSIQMTQSPSSLSASVGDRVTITCQSSHSVYSDNDLAWYQQKPGKAPKLLIYQASKLASGVPSRFSGSGSGTDFTLTISSLQPEDFATYYCLGGYDDESDTYGFGGGTKVEIK
light: DIQMTQSPSSLSASVGDRVTITCKASAAVGTYVAWYQQKPGKAPKLLIYSASYRKRGVPSRFSGSGSGTDFTLTISSLQPEDFATYYCHQYYTYPLFTFGQGTKLEIKRTVAAPSVFIFPPSDEQLKSGTASVVCLLNNFYPREAKVQWKVDNALQSGNSQESVTEQDSKDSTYSLSSTLTLSKADYEKHKVYACEVTHQGLSSPVTKSFNRGEC
B2: P1AF0712 + P1AF0713 (both SPLIT antibodies combined) (protein)
heavy 1: QVQLVQSGAEVKKPGASVKVSCKASGYTFTEFGMNWVRQAPGQGLEWMGWINTKTGEATYVEEFKGRVTFTTDTSTSTAYMELRSLRSDDTAVYYCARWDFAYYVEAMDYWGQGTTVTVSSASTKGPSVFPLAPSSKSTSGGTAALGCLVKDYFPEPVTVSWNSGALTSGVHTFPAVLQSSGLYSLSSVVTVPSSSLGTQTYICNVNHKPSNTKVDKKV[human IgG1 Fc with changes skipped]
heavy 2: QVQLVQSGAEVKKPGASVKVSCKASGYTFTEFGMNWVRQAPGQGLEWMGWINTKTGEATYVEEFKGRVTFTTDTSTSTAYMELRSLRSDDTAVYYCARWDFAYYVEAMDYWGQGTTVTVSSASTKGPSVFPLAPSSKSTSGGTAALGCLVKDYFPEPVTVSWNSGALTSGVHTFPAVLQSSGLYSLSSVVTVPSSSLGTQTYICNVNHKPSNTKVDKKVEPKSCDKTHTCPPCPAPEAAGGPSVFLFPPKPKDTLMISRTPEVTCVVVDVSHEDPEVKFNWYVDGVEVHNAKTKPREEQYNSTYRVVSVLTVLHQDWLNGKEYKCKVSNKALGAPIEKTISKAKGQPREPQVCTLPPSRDELTKNQVSLSCAVKGFYPSDIAVEWESNGQPENNYKTTPPVLDSDGSFFLVSKLTVDKSRWQQGNVFSCSVMHEALHNHYTQKSLSLSPGGGGGSGGGGSGGGGSGGGGSQAVVIQESALTTPPGETVTLTCGSSTGAVTASNYANWVQEKPDHLFTGLIGGHNNRPPGVPARFSGSLIGDKAALTIAGTQTEDEAIYFCALWYSDHWVIGGGTKLTVL
heavy 3: B1 heavy 1
heavy 4: QVQLVQSGAEVKKPGASVKVSCKASGYTFTEFGMNWVRQAPGQGLEWMGWINTKTGEATYVEEFKGRVTFTTDTSTSTAYMELRSLRSDDTAVYYCARWDFAYYVEAMDYWGQGTTVTVSSASTKGPSVFPLAPSSKSTSGGTAALGCLVKDYFPEPVTVSWNSGALTSGVHTFPAVLQSSGLYSLSSVVTVPSSSLGTQTYICNVNHKPSNTKVDKKV[human IgG1 Fc with changes skipped]GGGGSGGGGSGGGGSGGGGSHVKLQESGPGLVQPSQSLSLTCTVSGFSLTDYGVHWVRQSPGKGLEWLGVIWSGGGTAYNTALISRLNIYRDNSKNQVFLEMNSLQAEDTAMYYCARRGSYPYNYFDAWGQGTTVTVSSAST
light: B1 light

How the values were obtained:
[1] = target: T1, Carcinoembryonic antigen (CEA), Carcinoembryonic antigen-related cell adhesion molecule 5 (CEACAM5), on cells (human), P06731; assay: FACS on MKN-45 cells; both hemibodies mixed 1:1, concentration given for each antibody; detection with anti-human IgG(H+L) secondary antibody
T1 chain: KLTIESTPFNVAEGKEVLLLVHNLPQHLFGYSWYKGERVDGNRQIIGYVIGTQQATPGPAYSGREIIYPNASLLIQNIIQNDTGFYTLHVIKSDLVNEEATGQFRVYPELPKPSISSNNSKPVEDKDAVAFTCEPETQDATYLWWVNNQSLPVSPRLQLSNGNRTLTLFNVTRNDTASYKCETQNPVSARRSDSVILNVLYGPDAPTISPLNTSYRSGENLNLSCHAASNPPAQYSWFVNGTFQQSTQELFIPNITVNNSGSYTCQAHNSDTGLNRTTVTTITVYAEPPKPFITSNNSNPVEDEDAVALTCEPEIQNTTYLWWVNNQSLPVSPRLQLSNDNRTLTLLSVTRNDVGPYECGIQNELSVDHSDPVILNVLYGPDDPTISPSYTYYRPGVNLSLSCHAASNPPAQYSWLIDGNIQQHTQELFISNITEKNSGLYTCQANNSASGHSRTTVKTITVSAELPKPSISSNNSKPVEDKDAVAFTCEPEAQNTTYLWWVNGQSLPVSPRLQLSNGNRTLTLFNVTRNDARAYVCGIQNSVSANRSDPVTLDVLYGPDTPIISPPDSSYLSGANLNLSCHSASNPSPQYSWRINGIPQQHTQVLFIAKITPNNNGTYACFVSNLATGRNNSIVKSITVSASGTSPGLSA

[2] = target: T1, Carcinoembryonic antigen (CEA), …; assay: flow cytometry on MKN-45 cells, both SPLIT antibodies combined, detection with anti-huIgG(H+L)-Alexa488

| Binder | EC50 (read off the curve) (µg/ml each Ab) [1] | EC50 [2] [µg/mL] |
| --- | --- | --- |
| B1 | 0.7 | – |
| B2 | – | 0.9 |
